The source of these data is the supplement of paper PMC11417369.

± gives the standard deviation of the averaged measurements. Some of the results follow.

For this test, the system named is PfAP2-I AP2 domain 3 (GST-tagged). The test is described as follows: gcPBM binding intensity (ln(normalized median fluorescence intensity)); higher = stronger DNA binding. A digest of the protocol: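 Probes on an Agilent 4 × 180k array were primer-extended, double-stranded and 36 bp long, taken from intergenic genomic regions, with negative controls added. GST-tagged P. falciparum DNA-binding domains from E. coli, about 25 μg on average, were applied to the array for 1 h in 1× PBS containing 1% milk, 0.2 mg/ml BSA, 0.5% salmon testes DNA and 0.03% Triton X-100. Binding intensity, obtained after Alexa488 anti-GST antibody detection and a 488 nm scan, is the highest Masliner-normalised natural-log median intensity across replicate spots of either probe orientation.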
Take “AAATACTGATTTGGTTGTACATGTGCACTATATAAC [XGTACX_site3795]”: the “gcPBM binding intensity (ln)” value stood at 11.3 ± 0.56.
Turning to “ATAAATATATTTATATGTACATATAATTTTACATAT [XGTACX_site5440]”, the “gcPBM binding intensity (ln)” value came to 7.86 ± 0.42.
As to “TATAATCTAACATAATGTACATGTATATGCACTTTA [XGTACX_site369]”, the “gcPBM binding intensity (ln)” value was 10.1 ± 0.68.
With “TTTTTTACAATTAACACACTCAAAAATAATATTAAA [CACACA_site5198]”, the “gcPBM binding intensity (ln)” value worked out at 7.92 ± 0.34.
Turning to “AATTTTTTAAATGTGTGTACATATTATTTAAATAAT [XGTACX_site5967]”, the “gcPBM binding intensity (ln)” value worked out at 7.95 ± 0.18.
For “TATATTATATATATATGTACATATGGCAAAACATTA [XGTACX_site7958]”, the “gcPBM binding intensity (ln)” value was 8.02 ± 0.55.
Consider “AAAAAAAAAAAAAAATGTACCCATAAAATAAGCATT [XGTACX_site8576]”, for which the “gcPBM binding intensity (ln)” value is 8.35 ± 0.54.
In the case of “AATCACAACGAACACACACACAAAAAAAAAAAAAAA [CACACA_site6790]”, the “gcPBM binding intensity (ln)” value was 7.96 ± 0.54.
For “TGATTTTTTCATATTCTACACACGTGAACAAATGTG [CACACA_site8987]”, the “gcPBM binding intensity (ln)” value stood at 7.76 ± 0.77.
As to “TTAATTATTATATAAGTGCAATAATAAAAAGTTGTA [GTGCAC_site9552]”, the “gcPBM binding intensity (ln)” value amounted to 10.7 ± 0.76.
With “ATTTAAAACAAAAGTAGTACGTCTAATAAATTCAAC [XGTACX_site4344]”, the “gcPBM binding intensity (ln)” value came to 7.8 ± 0.26.
Take “TTATCAATAAAATGCACACACTGTAATATTATTAAA [CACACA_site6055]”: the “gcPBM binding intensity (ln)” value was found to be 9.08 ± 0.14.
Regarding “ATATATATTTATATTTGTACGAATTAAAATTTTTTA [XGTACX_site5200]”, the “gcPBM binding intensity (ln)” value came to 7.7 ± 0.52.
“ATAGCTTTTATTTAAAGTACAAAAAGGATGTTGAAA [XGTACX_site3810]”: the “gcPBM binding intensity (ln)” value amounted to 7.77 ± 0.62.
For “AAAAAAAAAAAACACACACACACACCCATACATACA [CACACA_site707]” the value was 8.2 ± 0.17.
Regarding “AGACAAAATGTTTGAAGTACTTTTTATCAAATTAAA [XGTACX_site8885]”, the “gcPBM binding intensity (ln)” value was determined as 7.66 ± 0.2.
As for “AGGGAATAAGTAAGGTGTACATAATTATGTTACTTT [XGTACX_site6152]”, the “gcPBM binding intensity (ln)” value worked out at 7.95 ± 0.52.
“TTTTTTTATTTTATAAAGCAAAAATAAGAATGAAAT [XGTACX_negctrl_site270]”: the “gcPBM binding intensity (ln)” value turned out to be 7.85 ± 0.4.
In the case of “TATATGTATGTATGTACACACAAAAAATGGAATATA [CACACA_site3717]”, the “gcPBM binding intensity (ln)” value was 7.93 ± 0.35.
With “TTTTTTTTTTTTAATTGTACATTTTATATAAACTTT [XGTACX_site6806]”, the “gcPBM binding intensity (ln)” value is 7.93 ± 0.69.
Turning to “AATTTATTTTTTTAATGTACATATGGTATAAATATA [XGTACX_site8012]”, the “gcPBM binding intensity (ln)” value was 7.83 ± 0.49.
For the sequence “TGTTGATTTCTCAAATGTACTTTACTTTTCTTCAGA [XGTACX_site7916]”, the “gcPBM binding intensity (ln)” value came out at 7.54 ± 0.76.
For “AATATATATATATGTACACACTCCAATACATATACA [CACACA_site2682]” the value was 7.92 ± 0.44; for “TTAAGAATATCTTAGAGTACATTTTATCATCTTAAA [XGTACX_site8298]”, 7.3 ± 0.36; for “TCTTTTTAAATTACTATAATACATTCATAAATTATA [GTGCAC_negctrl_site448]”, 7.64 ± 0.34.
Consider “TCTTGTTTTCAAATATGTACATAGAATAGACATTTT [XGTACX_site684]”, for which the “gcPBM binding intensity (ln)” value worked out at 7.75 ± 0.3.
For “AAATATATAAAATATACACACAGTAATATATATATA [CACACA_site1385]” the value was 8.915 ± 0.021.
“AAGTTTTATTTAAATTGTACTAAAATTTTTATATTA [XGTACX_site7065]”: the “gcPBM binding intensity (ln)” value is 7.7 ± 0.38.
For “TATATATAAATATTCAGTACATAGTATTATTAAGTA [XGTACX_site1980]”, the “gcPBM binding intensity (ln)” value turned out to be 7.62 ± 0.31.
As for “ATAAAATGAACAAACACACACACATATATATATATA [CACACA_site2402]”, the “gcPBM binding intensity (ln)” value amounted to 9.32 ± 0.2.
Consider “TATTTAAGAATATGAAGTACATATATTATTTAAAAA [XGTACX_site7897]”, for which the “gcPBM binding intensity (ln)” value was found to be 7.64 ± 0.32.
For the sequence “CATATAAATAAATACACACACACACGCCTTATAATT [CACACA_site7830]”, the “gcPBM binding intensity (ln)” value amounted to 8.12 ± 0.67.
In the case of “TATATAGGTATCATTACACACATGTATACTTATTTG [CACACA_site7864]”, the “gcPBM binding intensity (ln)” value amounted to 7.7 ± 0.49.
“CCTAAAAAAAAGAAATGATATACATATGTATATATA [GTGCAC_negctrl_site100]”: the “gcPBM binding intensity (ln)” value is 7.4 ± 0.65.
On to “TTTTTCTTTCTCTATTGTACACATGGAAACACATAA [XGTACX_site4601]”, for which the “gcPBM binding intensity (ln)” value stood at 8.4 ± 0.55.
The result for “TACAATTTTTTAAATGCACACAAAAGGAATAAATAA [CACACA_site8075]” reads 10.1 ± 0.15.
The result for “AAAAGCAAGTTCCAGGGTACATATATATGAAAAAAC [XGTACX_site2408]” reads 8.12 ± 0.73; that for “TAATATATGTATTGCACACCTATAACCATTATTTCT [CACACA_site1498]”, 10.2 ± 0.38.
As for “AAAAATATGTCCATGAAAAGGATAGGCAGGTAATCA [XGTACX_negctrl_site93]”, the “gcPBM binding intensity (ln)” value is 8.06 ± 0.86.
As for “AAATATATTTTACATTGTACATGAATAAACTATAAA [XGTACX_site2080]”, the “gcPBM binding intensity (ln)” value worked out at 7.73 ± 0.37.
Consider “AAAAATTAAATAAATTTACACACTAATAATTACATA [CACACA_site8260]”, for which the “gcPBM binding intensity (ln)” value was 7.48 ± 0.49.
As for ACGTTAAAATATTGGGTGCTAACACAATAAAAATAA, the “gcPBM binding intensity (ln)” value turned out to be 8.85 ± 0.21.
Regarding “CAATTTTTTAAATGCACACAAAAGGAATAAATAAAT [CACACA_site544]”, the “gcPBM binding intensity (ln)” value came out at 10.1 ± 0.44.
Take “AAGAAGAAATGCTTTGCATGCAAATTTTATGCCAAC [TGCATGCA_site721]”: the “gcPBM binding intensity (ln)” value is 7.98 ± 0.65.
Take “AACAATTGGAATAACGCATGCATTTATAATATAGAA [TGCATGCA_site298]”: the “gcPBM binding intensity (ln)” value worked out at 8.17 ± 0.75.
The result for “ACAAATTTATACTTAAAACACACGTAATCATTTATA [CACACA_site1636]” reads 7.66 ± 0.62; that for “TGAATATTCCTATGCACACAAATTAAAATACATAAT [CACACA_site4403]”, 8.74 ± 0.2; that for “TAAAATAATTTATGCATACACACATATATATATATA [CACACA_site4021]”, 9.49 ± 0.26.
Take “TACAAAAAAAAAAAATAGATAAAATAATAATCAAAT [TGCATGCA_negctrl_site524]”: the “gcPBM binding intensity (ln)” value was 7.46 ± 0.45.
As for “ATATATTGAACATATTGTACATTTTGTTAATATTTT [XGTACX_site7622]”, the “gcPBM binding intensity (ln)” value was determined as 7.44 ± 0.49.
As for “TCTCAAGTTGTTAAAAAATAAAAACAATAAATCTAA [CACACA_negctrl_site165]”, the “gcPBM binding intensity (ln)” value came out at 7.38 ± 0.35.
For “AATTGGGAACTGTAATGTACATATATTGAAAGTATA [XGTACX_site7081]” the value was 7.84 ± 0.45; for “ACAAAAAAAAATATGTTAACTATATATATATATATA [CACACA_negctrl_site346]”, 9.38 ± 0.29; for “TATTTATTTGTACATATACACACTTAAATATGTTTA [CACACA_site3902]”, 7.83 ± 0.4.
The result for “TTATATTTCTTGAAGGGTACATACCATTATTTTTAA [XGTACX_site1159]” reads 7.82 ± 0.48; that for “AGAAAACTCGCTTTTCTAAATCTCAAAAAAAAAAAA [XGTACX_negctrl_site94]”, 7.98 ± 0.78.
